Results taken from patent US11261230B2, “Synthetic somatostatin receptor ligands” (TEL HASHOMER MEDICAL RESEARCH INFRASTRUCTURE AND SERVICES …, priority 2014, dated 2022).
Not every detail of the peptide structures is certain; ends, links or a residue may be inferred. *1 amine or outer side, *2 acyl side, *3 side chain or, on linkers, in order; H or OH if unused. Where a SMILES comes first, the peptide text is derived from it. Bridges are numbered along the chain shown (N, C = ends). [ ]: non-standard residue; d: D form. The star is where a group is joined. FITC = O=C1OC2(c3ccc(O)cc3Oc3cc(O)ccc32)c2ccc(NC(=S)*)cc21; N(2-mercaptoethyl)Gly = O=C(CN(CCS[*:3])[*:1])[*:2]; Orn = NCCC[C@H](N)C(=O)O; GABA = NCCCC(=O)O

Experiments:
[1] = target: T1, human SSTR1 (Homo sapiens, UniProt P30872); test: Binding to transfected HEK cells expressing a single SSTRx subtype, FACS; conditions: specific binding affinity = percentage double stained [GR/R−G], 0 = no binding detected
T1 construct: expressed in transfected cells; host or cells: HEK-293, transient transfection, pcDNA 3.1
T1 sequence (P30872 whole entry): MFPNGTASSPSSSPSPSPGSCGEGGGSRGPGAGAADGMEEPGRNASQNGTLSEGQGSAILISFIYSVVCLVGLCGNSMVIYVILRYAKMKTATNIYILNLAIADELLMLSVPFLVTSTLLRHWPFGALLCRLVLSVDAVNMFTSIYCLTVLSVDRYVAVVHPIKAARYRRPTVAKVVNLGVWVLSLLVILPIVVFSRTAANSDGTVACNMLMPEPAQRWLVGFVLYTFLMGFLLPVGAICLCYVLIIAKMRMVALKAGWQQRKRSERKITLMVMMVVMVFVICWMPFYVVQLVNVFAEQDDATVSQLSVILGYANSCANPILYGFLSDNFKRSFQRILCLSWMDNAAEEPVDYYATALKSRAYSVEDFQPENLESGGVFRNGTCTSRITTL
Description: (§1) The affinity of compounds 1-16 to each of the five SSTRx was tested using an in vitro model of transfected cell lines (HEK—human embryonic kidney), each expressing a single human SSTRx subtype. Biological activity assessment of the compounds to define a specific affinity to each subtype was performed by FACS and fluorescence imaging methods.
(§2) Human SSTRx were expressed in the cells by transient transfection. Each SSTR was expressed separately, creating five different cell lines using human gene transcript.
(§3) The transfection process is illustrated in FIG. 1. The transient transfection process was carried out before each experiment. Briefly, HEK cells were cultured in standard cell growth conditions. For testing, the cells were transferred into 96-well plates. The tested compounds were dissolved in DMSO and then diluted in a buffer solution to a final DMSO concentration of 5% as a composition according to the teachings herein. Various amounts of the thus-prepared compositions were added to the cells in medium in the 96-well plates and allowed to incubate for between 1 and 24 hours. Binding was determined using fluorescent microscopy and FACS.
(§4) Qualitative assessment of binding efficiency was done by visual inspection and digital photography using an inverted fluorescent microscope. Quantitative assessment was done using FACS.
(§5) HEK-293 cells (human embryonic kidney) were grown in Dulbecco's modified Eagle's medium (DMEM) supplemented with 4 mM glutamine, 10% fetal bovine serum (FBS) and 100 units/ml penicillin/streptomycin at 37° C./5% carbon dioxide. One day prior to transfection, the cells were trypsinized, counted and plated at a density of 3×10^5 per 35 mm diameter dish. Until 70% confluency, cells were transiently transfected with the pcDNA 3.1 vector bearing the coding region for the human SSTR human somatostatin receptor subtypes SSTR1-SSTR5. Transfections were carried out with JetPei transfection reagent (Polyplus-transfection, NY, USA) according to the manufacturer's recommendation. Briefly, 2 micrograms of plasmid DNA and 6 microliter of JetPei transfection reagent were used for each transfection. Each of the components were resuspended in 100 microliter of 150 mM NaCl, mixed and incubated for 25 minutes at room temperature and after incubation added to cells.
(§6) Cells were then seeded in a 96-well flat-bottom microplate (Costar, Corning, N.Y.) at a concentration of 5×10^4 cells/well. Twelve hours later, the supernatant was removed and replaced with fresh DMEM containing various (in the nM range) concentrations of tested compounds 1-16. The cells were incubated for additional time intervals ranging from 0.5-24 hr. At the end of the incubation period, supernatant was discarded and the cells were washed twice with cold PBS. The plates were examined using IX81 inverted microscope (Olympus, Japan) equipped with […] digital camera. Additionally, a FACS assay was used for quantitative analysis.
(§7) Quantitative assessment of binding affinity of Compounds 1-16 was performed by FACS in the transfected HEK cell model.
(§8) Quantitatively, specific binding affinity was assessed as the percentage of double stained [(GR=green and red indicating transfection)/(R is total red) less (G is green indicating unspecific binding)]: specific binding affinity=[GR/R−G]

[2] = target: T2, human SSTR2 (Homo sapiens, UniProt P30874); test: as above; conditions: specific binding affinity = percentage double stained [GR/R−G], 0 = no binding detected
T2 construct: expressed in transfected cells; host or cells: HEK-293, transient transfection, pcDNA 3.1
T2 sequence (P30874 whole entry): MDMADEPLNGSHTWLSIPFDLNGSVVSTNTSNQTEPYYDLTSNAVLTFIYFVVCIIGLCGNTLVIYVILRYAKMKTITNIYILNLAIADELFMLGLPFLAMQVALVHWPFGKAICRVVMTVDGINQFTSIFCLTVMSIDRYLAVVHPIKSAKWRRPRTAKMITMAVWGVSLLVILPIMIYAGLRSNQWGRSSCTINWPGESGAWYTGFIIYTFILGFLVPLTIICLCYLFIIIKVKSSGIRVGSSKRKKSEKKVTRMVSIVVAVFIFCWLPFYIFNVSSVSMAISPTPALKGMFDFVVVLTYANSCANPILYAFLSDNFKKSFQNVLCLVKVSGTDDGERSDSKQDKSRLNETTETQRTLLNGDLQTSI
Description: as §1, §2, §3, §4, §5, §6, §7, §8

[3] = target: T3, human SSTR3 (Homo sapiens, UniProt P32745); test: as above; conditions: specific binding affinity = percentage double stained [GR/R−G], 0 = no binding detected
T3 construct: expressed in transfected cells; host or cells: HEK-293, transient transfection, pcDNA 3.1
T3 sequence (P32745 whole entry): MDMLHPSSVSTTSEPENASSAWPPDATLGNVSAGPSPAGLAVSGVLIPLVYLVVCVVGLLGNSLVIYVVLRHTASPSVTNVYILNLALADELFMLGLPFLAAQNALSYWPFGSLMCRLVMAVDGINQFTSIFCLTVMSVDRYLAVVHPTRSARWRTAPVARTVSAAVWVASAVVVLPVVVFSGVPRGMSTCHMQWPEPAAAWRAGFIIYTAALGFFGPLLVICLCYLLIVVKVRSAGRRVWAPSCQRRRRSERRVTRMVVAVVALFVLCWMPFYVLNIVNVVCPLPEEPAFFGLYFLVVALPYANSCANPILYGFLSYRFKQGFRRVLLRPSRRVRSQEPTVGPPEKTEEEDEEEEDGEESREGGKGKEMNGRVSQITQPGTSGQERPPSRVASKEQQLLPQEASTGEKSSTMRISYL
Description: as §1, §2, §3, §4, §5, §6, §7, §8

[4] = target: T4, human SSTR4 (Homo sapiens, UniProt P31391); test: as above; conditions: specific binding affinity = percentage double stained [GR/R−G], 0 = no binding detected
T4 construct: expressed in transfected cells; host or cells: HEK-293, transient transfection, pcDNA 3.1
T4 sequence (P31391 whole entry): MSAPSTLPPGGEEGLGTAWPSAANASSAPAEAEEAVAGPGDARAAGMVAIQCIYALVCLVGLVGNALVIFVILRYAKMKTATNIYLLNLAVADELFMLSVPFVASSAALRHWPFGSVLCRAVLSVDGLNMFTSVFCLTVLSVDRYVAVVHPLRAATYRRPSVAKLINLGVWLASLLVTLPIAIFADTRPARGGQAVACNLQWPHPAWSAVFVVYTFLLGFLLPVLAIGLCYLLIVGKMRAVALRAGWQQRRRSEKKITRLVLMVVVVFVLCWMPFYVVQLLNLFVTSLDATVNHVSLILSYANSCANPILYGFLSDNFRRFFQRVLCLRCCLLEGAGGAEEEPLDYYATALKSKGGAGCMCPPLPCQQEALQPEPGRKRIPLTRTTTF
Description: as §1, §2, §3, §4, §5, §6, §7, §8

[5] = target: T5, human SSTR5 (Homo sapiens, UniProt P35346); test: Binding to transfected HEK cells expressing a single SSTRx subtype, FACS and fluorescence microscopy; conditions: FACS, specific binding affinity = percentage double stained [GR/R−G], 0 = no binding detected
T5 construct: expressed in transfected cells; host or cells: HEK-293, transient transfection, pcDNA 3.1
T5 sequence (P35346 whole entry): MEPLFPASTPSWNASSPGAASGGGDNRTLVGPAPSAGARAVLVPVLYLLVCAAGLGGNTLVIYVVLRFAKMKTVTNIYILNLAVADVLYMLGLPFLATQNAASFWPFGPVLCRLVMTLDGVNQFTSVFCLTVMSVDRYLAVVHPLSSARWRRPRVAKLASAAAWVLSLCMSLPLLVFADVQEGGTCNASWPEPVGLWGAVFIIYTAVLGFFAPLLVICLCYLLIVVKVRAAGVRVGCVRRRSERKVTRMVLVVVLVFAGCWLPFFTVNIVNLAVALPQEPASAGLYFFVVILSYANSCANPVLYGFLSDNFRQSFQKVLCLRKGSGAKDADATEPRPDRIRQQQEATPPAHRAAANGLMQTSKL
Description: as §1, §2, §3, §4, §5, §6, §7, §8

[6] = system: SSTR1-SSTR5; test: Binding specificity across the five SSTRx transfected HEK cell lines; set-up: species or system human; conditions: conclusions drawn from Table 2-A
Description: Biological activity assessment of the compounds to define a specific affinity to each subtype was performed by FACS and fluorescence imaging methods. Human SSTRx were expressed in the cells by transient transfection. Each SSTR was expressed separately, creating five different cell lines using human gene transcript. The transfection process is illustrated in FIG. 1. The transient transfection process was carried out before each experiment. Briefly, HEK cells were cultured in standard cell growth conditions. For testing, the cells were transferred into 96-well plates. The tested compounds were dissolved in DMSO and then diluted in a buffer solution to a final DMSO concentration of 5% as a composition according to the teachings herein. Various amounts of the thus-prepared compositions were added to the cells in medium in the 96-well plates and allowed to incubate for between 1 and 24 hours. Binding was determined using fluorescent microscopy and FACS. Cells were then seeded in a 96-well flat-bottom microplate (Costar, Corning, N.Y.) at a concentration of 5×10^4 cells/well. Twelve hours later, the supernatant was removed and replaced with fresh DMEM containing various (in the nM range) concentrations of tested compounds 1-16. The cells were incubated for additional time intervals ranging from 0.5-24 hr. At the end of the incubation period, supernatant was discarded and the cells were washed twice with cold PBS. The plates were examined using IX81 inverted microscope (Olympus, Japan) equipped with […] digital camera. Additionally, a FACS assay was used for quantitative analysis. […] Quantitatively, specific binding affinity was assessed as the percentage of double stained [(GR=green and red indicating transfection)/(R is total red) less (G is green indicating unspecific binding)]: specific binding affinity=[GR/R−G]

[7] = system: PANC-1 tumors; test: In vivo biodistribution in PANC-1 xenograft mice, Maestro fluorescence imaging of harvested tissue; conditions: 0.3 ml into the tail vein, 1 day after administration, average of three mice

SMILES	Relative binding affinity SSTR1 [1]	Relative binding affinity SSTR2 [2]	Relative binding affinity SSTR3 [3]	Relative binding affinity SSTR4 [4]	Relative binding affinity SSTR5 [5]	Binding specificity among the five SSTRx (in words) [6]	Tumor/kidney ratio of signal [7]
C[C@@H](O)[C@@H]1NC(=O)[C@H](CCCCN)NC(=O)[C@@H](Cc2c[nH]c3ccccc23)NC(=O)[C@H](Cc2ccccc2)NC(=O)[C@@H](NC(=O)[C@H](CCCNC(=N)N)NC(=O)[C@@H](Cc2ccccc2)NC(=O)CCCNC(=S)Nc2ccc3c(c2)C(=O)OC32c3ccc(O)cc3Oc3cc(O)ccc32)CSSCCN(CC(N)=O)C(=O)[C@H](Cc2ccccc2)NC1=O [Compound 2, FITC-GABA-D-Phe-Arg-Cys-Phe-D-Trp-Lys-Thr-Phe-GlyS2] ({FITC-GABA}-[dF]RCF[dW]KTF[N(2-mercaptoethyl)Gly]-NH2; disulfide 3-9)	5	5	4	4	5	have little binding specificity and bind to all five SSTRx with roughly the same affinity	
C[C@@H](O)[C@@H]1NC(=O)[C@H](CCCCN)NC(=O)[C@@H](Cc2c[nH]c3ccccc23)NC(=O)[C@H](Cc2c[nH]c3ccccc23)NC(=O)[C@H](Cc2ccccc2)NC(=O)[C@@H](NC(=O)[C@@H](Cc2ccccc2)NC(=O)CCCNC(=S)Nc2ccc3c(c2)C(=O)OC32c3ccc(O)cc3Oc3cc(O)ccc32)CSSCCN(CC(N)=O)C(=O)[C@H](Cc2ccccc2)NC1=O [Compound 1, FITC-GABA-DPhe-Cys*-Phe-Trp-DTrp-Lys-Thr-Phe-GlyS2*-NH2, reference compound]	3	6.5	17	22.5	28.5	preferentially bind to SSTR3, SSTR4 and SSTR5 and not to SSTR1 and SSTR2	38
C[C@@H](O)[C@@H]1NC(=O)[C@H](CCCN)NC(=O)[C@@H](Cc2c[nH]c3ccccc23)NC(=O)[C@H](Cc2ccccc2)NC(=O)[C@@H](NC(=O)[C@H](CCCNC(=N)N)NC(=O)[C@@H](Cc2ccccc2)NC(=O)CCCNC(=S)Nc2ccc3c(c2)C(=O)OC32c3ccc(O)cc3Oc3cc(O)ccc32)CSSCCN(CC(N)=O)C(=O)[C@H](Cc2ccccc2)NC1=O [Compound 5, FITC-GABA-D-Phe-Arg-Cys-Phe-D-Trp-Orn-Thr-Phe-GlyS2] ({FITC-GABA}-[dF]RCF[dW][Orn]TF[N(2-mercaptoethyl)Gly]-NH2; disulfide 3-9)	0	1	3	1	0	relatively specific and preferentially bind to SSTR3	
C[C@@H](O)[C@@H]1NC(=O)[C@H](CCCCCN)NC(=O)[C@@H](Cc2c[nH]c3ccccc23)NC(=O)[C@H](Cc2c[nH]c3ccccc23)NC(=O)[C@H](Cc2ccccc2)NC(=O)[C@@H](NC(=O)[C@@H](Cc2ccccc2)NC(=O)CCCNC(=S)Nc2ccc3c(c2)C(=O)OC32c3ccc(O)cc3Oc3cc(O)ccc32)CSSCCN(CC(N)=O)C(=O)[C@H](Cc2ccccc2)NC1=O [Compound 16, FITC-GABA-D-Phe-Cys-Phe-Trp-D-Trp-HomoLys-Thr-Phe-GlyS2]	0	2.5	12	4.5	7	to SSTR3 and SSTR5 and not SSTR1, SSTR2 and SSTR4	
C[C@@H](O)[C@@H]1NC(=O)[C@H](CCCN)NC(=O)[C@@H](Cc2c[nH]c3ccccc23)NC(=O)[C@H](Cc2ccc(O)cc2)NC(=O)[C@@H](NC(=O)[C@@H](Cc2ccccc2)NC(=O)CCCNC(=S)Nc2ccc3c(c2)C(=O)OC32c3ccc(O)cc3Oc3cc(O)ccc32)CSSCCN(CC(N)=O)C(=O)[C@H](Cc2ccccc2)NC1=O [Compound 7, FITC-GABA-D-Phe-Cys-Tyr-D-Trp-Orn-Thr-Phe-GlyS2] ({FITC-GABA}-[dF]CY[dW][Orn]TF[N(2-mercaptoethyl)Gly]-NH2; disulfide 2-8)	0	1	2	1.5	1	bind to SSTR2, SSTR3, SSTR4 and SSTR5, but not to SSTR1	
C[C@@H](O)[C@@H]1NC(=O)[C@H](CCCCN)NC(=O)[C@@H](Cc2c[nH]c3ccccc23)NC(=O)[C@H](Cc2c[nH]c3ccccc23)NC(=O)[C@H](Cc2ccc(O)cc2)NC(=O)[C@@H](NC(=O)[C@@H](Cc2ccccc2)NC(=O)CCCNC(=S)Nc2ccc3c(c2)C(=O)OC32c3ccc(O)cc3Oc3cc(O)ccc32)CSSCCN(CC(N)=O)C(=O)[C@H](Cc2ccccc2)NC1=O [Compound 4, FITC-GABA-D-Phe-Cys-Tyr-Trp-D-Trp-Lys-Thr-Phe-GlyS2] ({FITC-GABA}-[dF]CYW[dW]KTF[N(2-mercaptoethyl)Gly]-NH2; disulfide 2-9)	3.6	4.3	15.7	13.3	9.3	relatively specific and preferentially bind to SSTR3	25
C[C@@H](O)[C@@H]1NC(=O)[C@H](CCCCN)NC(=O)[C@@H](Cc2c[nH]c3ccccc23)NC(=O)[C@H](Cc2ccccc2)NC(=O)[C@H](CCCNC(=N)N)NC(=O)[C@@H](NC(=O)CCCNC(=S)Nc2ccc3c(c2)C(=O)OC32c3ccc(O)cc3Oc3cc(O)ccc32)CSSCCN(CC(N)=O)C(=O)[C@H](Cc2ccccc2)NC1=O [Compound 9, FITC-GABA-Cys-Arg-Phe-D-Trp-Lys-Thr-Phe-GlyS2] ({FITC-GABA}-CRF[dW]KTF[N(2-mercaptoethyl)Gly]-NH2; disulfide 1-8)	0	10	14	15	20	bind to SSTR2, SSTR3, SSTR4 and SSTR5, but not to SSTR1	
